Reference: publication PMC11696497
These are yes or no findings as the source states them, for the method shown. Binding seen in cells or lysates may run through a third protein. Some results given as binding are weak or reduced against the parent protein; the word gives no strength. For some assays here: Tags and fused reporters may be left off the sequences shown.

The chains behind the UniProt entries cited, without tags or fusion partners. Residues count along the entry.
UniProt P56450: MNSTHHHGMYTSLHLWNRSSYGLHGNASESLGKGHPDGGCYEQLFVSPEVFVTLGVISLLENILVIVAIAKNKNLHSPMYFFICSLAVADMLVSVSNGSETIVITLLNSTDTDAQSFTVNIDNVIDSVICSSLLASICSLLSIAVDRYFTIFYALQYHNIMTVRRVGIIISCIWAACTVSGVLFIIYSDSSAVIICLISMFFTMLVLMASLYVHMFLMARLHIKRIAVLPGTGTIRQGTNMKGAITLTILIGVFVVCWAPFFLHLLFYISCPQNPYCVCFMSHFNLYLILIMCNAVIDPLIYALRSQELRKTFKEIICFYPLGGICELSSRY
UniProt P43220, residues 24-463: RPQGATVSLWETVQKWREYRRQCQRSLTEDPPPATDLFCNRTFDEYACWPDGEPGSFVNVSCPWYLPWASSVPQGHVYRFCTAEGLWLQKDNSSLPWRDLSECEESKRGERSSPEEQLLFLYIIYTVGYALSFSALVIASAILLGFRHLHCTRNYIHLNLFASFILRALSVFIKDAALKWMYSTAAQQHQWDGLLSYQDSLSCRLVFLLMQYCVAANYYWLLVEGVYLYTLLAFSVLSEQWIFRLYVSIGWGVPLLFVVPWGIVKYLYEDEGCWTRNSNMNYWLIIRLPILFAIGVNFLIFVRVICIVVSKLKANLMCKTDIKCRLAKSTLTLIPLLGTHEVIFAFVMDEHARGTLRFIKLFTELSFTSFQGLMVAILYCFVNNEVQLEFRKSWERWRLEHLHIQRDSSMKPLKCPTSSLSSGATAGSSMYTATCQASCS
UniProt P32245: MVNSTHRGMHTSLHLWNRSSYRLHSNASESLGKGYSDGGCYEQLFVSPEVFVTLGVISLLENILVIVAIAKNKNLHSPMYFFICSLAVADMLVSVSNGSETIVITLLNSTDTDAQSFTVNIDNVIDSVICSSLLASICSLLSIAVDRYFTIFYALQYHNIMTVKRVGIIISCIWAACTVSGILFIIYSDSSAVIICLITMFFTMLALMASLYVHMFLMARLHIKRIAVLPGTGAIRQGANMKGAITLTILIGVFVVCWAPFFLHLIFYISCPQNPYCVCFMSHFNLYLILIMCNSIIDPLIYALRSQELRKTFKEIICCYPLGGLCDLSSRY

Tests used:
[1] = biological target: T1, NUCB2-Flag (nucleobindin-2, Flag-tagged, from plasmid pc-NUCB2-Flag) (UniProt P80303); assay: co-IP; STC-1 cells transfected or cotransfected with pc-NUCB2-Flag, pc-MC4R-HA, pc-GLP-1R-HA or empty vector for 48 h; lysed in RIPA buffer; IP with anti-HA or anti-Flag antibody and protein A/G magnetic beads; immunoblot
T1 sequence: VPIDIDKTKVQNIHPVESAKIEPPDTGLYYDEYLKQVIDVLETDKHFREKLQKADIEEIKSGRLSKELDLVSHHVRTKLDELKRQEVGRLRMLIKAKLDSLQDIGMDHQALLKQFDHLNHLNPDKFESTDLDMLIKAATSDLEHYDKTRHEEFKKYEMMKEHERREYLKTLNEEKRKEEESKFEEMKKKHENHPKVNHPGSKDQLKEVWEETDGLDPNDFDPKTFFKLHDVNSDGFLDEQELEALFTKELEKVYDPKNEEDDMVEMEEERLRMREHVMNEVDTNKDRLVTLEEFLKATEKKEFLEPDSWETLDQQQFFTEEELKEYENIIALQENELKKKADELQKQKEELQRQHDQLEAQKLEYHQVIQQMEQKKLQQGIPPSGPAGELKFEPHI

[2] = biological target: T2, NUCB2 with EGFP at its C-terminus (plasmid pEGFP-NUCB2) (UniProt P80303); assay: FRET or BRET; acceptor photobleaching FRET, EGFP-mCherry pair; pEGFP-NUCB2 and pmCherry-MC4R transfected into HEK293T cells for 48 h, cells fixed with 4% paraformaldehyde; negative control pEGFP-N1 and pmCherry-N1
T2 sequence: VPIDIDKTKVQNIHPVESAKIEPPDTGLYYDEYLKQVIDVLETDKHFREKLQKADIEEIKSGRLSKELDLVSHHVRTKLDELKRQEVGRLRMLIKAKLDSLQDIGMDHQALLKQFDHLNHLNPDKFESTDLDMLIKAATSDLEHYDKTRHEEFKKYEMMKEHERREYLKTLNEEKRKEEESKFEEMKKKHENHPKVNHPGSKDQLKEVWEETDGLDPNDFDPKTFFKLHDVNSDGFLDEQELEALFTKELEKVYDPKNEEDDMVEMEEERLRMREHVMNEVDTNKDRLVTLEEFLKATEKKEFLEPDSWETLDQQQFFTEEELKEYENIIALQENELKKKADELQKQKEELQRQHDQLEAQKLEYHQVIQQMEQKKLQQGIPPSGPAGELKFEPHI

[3] = biological target: T3, NUCB2 deletion mutant ΔN51–75, Flag-tagged (plasmid pc-ΔN51–75-Flag) (UniProt P80303); assay: co-IP; Flag-tagged NUCB2 and deletion mutants transfected for 48 h (STC-1 cells by the legend of Figure 6L; HEK293T cells with pc-MC4R-HA by the methods); RIPA lysate; immunoblot
T3 sequence: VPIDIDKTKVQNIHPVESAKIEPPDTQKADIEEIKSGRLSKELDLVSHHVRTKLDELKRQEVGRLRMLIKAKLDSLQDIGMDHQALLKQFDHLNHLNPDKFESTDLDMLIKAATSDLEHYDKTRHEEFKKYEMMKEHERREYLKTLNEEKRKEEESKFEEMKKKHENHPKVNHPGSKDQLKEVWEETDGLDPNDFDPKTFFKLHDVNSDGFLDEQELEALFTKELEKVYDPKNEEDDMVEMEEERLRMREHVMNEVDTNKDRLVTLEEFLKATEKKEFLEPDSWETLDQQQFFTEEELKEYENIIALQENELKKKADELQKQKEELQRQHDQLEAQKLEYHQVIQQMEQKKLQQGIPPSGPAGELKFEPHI

[4] = biological target: T1, NUCB2-Flag (nucleobindin-2, Flag-tagged, from plasmid pc-NUCB2-Flag); assay: as above
[5] = biological target: T4, NUCB2 deletion mutant ΔN25–50, Flag-tagged (plasmid pc-ΔN25–50-Flag) (UniProt P80303); assay: as above
T4 sequence: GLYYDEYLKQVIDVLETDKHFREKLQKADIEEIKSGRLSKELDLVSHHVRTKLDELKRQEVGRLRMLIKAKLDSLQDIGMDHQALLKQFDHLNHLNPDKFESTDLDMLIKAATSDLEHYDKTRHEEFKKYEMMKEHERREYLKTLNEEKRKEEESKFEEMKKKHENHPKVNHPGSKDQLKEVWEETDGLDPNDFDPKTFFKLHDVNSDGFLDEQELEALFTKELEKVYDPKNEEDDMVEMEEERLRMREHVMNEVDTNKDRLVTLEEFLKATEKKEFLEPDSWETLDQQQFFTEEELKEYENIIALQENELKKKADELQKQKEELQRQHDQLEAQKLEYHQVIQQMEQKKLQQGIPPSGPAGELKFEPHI

[6] = biological target: T5, NUCB2 deletion mutant ΔN76–106, Flag-tagged (plasmid pc-ΔN76–106-Flag) (UniProt P80303); assay: as above
T5 sequence: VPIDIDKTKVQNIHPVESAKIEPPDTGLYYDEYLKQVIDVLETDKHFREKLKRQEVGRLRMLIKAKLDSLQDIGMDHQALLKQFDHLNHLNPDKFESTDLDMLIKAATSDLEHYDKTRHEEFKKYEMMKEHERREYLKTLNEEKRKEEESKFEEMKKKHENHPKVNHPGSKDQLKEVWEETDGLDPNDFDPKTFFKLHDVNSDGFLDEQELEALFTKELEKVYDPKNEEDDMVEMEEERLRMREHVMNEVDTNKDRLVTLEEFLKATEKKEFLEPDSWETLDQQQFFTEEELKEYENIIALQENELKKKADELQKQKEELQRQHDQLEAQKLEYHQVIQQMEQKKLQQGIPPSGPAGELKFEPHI

[7] = biological target: T6, NUCB2^ΔHFR-Flag (NUCB2 with 70H-F-R72 mutated to 70A-A-A72, Flag-tagged) (UniProt P80303); assay: co-IP; 293T cells transfected with Flag-tagged NUCB2 or NUCB2^ΔHFR; IP with anti-flag magnetic beads in cell lysates; immunoblot
T6 sequence: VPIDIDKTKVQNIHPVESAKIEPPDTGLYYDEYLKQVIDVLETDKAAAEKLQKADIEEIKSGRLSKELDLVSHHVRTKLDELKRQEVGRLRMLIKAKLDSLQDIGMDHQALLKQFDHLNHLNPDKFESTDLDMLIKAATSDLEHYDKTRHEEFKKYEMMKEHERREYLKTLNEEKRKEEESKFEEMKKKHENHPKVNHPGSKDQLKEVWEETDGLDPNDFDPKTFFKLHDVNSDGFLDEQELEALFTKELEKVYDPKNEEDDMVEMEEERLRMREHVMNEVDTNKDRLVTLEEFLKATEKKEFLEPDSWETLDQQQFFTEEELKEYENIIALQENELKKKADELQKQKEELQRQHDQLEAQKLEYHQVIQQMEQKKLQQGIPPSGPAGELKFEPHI

[8] = biological target: T1, NUCB2-Flag (nucleobindin-2, Flag-tagged, from plasmid pc-NUCB2-Flag); assay: as above
[9] = biological target: T7, endogenous NUCB2/nesfatin-1 of STC-1 cells (mouse (endogenous in STC-1)) (UniProt P81117); assay: co-IP; endogenous proteins in STC-1 lysate; IP with anti-NUCB2/nesfatin-1 or anti-MC4R antibody and protein A/G magnetic beads; immunoblot
T7 sequence: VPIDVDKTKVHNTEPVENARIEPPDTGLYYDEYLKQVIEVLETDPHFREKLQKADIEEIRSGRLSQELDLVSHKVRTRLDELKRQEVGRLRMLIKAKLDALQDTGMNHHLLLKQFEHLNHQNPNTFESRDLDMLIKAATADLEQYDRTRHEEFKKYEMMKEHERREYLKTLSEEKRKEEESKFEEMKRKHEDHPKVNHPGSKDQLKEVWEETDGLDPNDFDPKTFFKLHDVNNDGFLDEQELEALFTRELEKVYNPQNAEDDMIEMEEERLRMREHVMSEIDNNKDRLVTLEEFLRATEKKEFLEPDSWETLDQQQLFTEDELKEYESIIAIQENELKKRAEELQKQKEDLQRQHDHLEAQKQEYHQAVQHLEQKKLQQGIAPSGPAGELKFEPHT

[10] = biological target: endogenous MC4R of STC-1 cells (mouse (endogenous in STC-1)) (UniProt P56450); assay: as above

Question: “GLP-1R-HA (GLP-1 receptor, HA-tagged, from plasmid pc-GLP-1R-HA) (from UniProt P43220 24-463)” was tested. Which binding [1] did it give?
Answer: no binding

Question: “MC4R with mCherry at its C-terminus (plasmid pmCherry-MC4R) (from UniProt P32245 1-332) (receptor)” was tested. Which binding [2] did it give?
Answer: binds

Question: What does the source list for “MC4R-HA (melanocortin 4 receptor, HA-tagged, from plasmid pc-MC4R-HA) (from UniProt P32245 1-332)”?
Answer: binding [3]: no binding; binding [4]: binds; binding [5]: binds; binding [6]: binds; binding [1]: binds; binding [7]: no binding; binding [8]: binds

Question: For “endogenous MC4R of STC-1 cells (from UniProt P56450 1-332) (receptor)”, which binding [9] is on record?
Answer: binds

B1: endogenous NUCB2/nesfatin-1 of STC-1 cells (protein, UniProt P81117 25-420)
chain: VPIDVDKTKVHNTEPVENARIEPPDTGLYYDEYLKQVIEVLETDPHFREKLQKADIEEIRSGRLSQELDLVSHKVRTRLDELKRQEVGRLRMLIKAKLDALQDTGMNHHLLLKQFEHLNHQNPNTFESRDLDMLIKAATADLEQYDRTRHEEFKKYEMMKEHERREYLKTLSEEKRKEEESKFEEMKRKHEDHPKVNHPGSKDQLKEVWEETDGLDPNDFDPKTFFKLHDVNNDGFLDEQELEALFTRELEKVYNPQNAEDDMIEMEEERLRMREHVMSEIDNNKDRLVTLEEFLRATEKKEFLEPDSWETLDQQQLFTEDELKEYESIIAIQENELKKRAEELQKQKEDLQRQHDHLEAQKQEYHQAVQHLEQKKLQQGIAPSGPAGELKFEPHT
Question: Which binding [10] does the source give for B1 here?
Answer: binds
